Test results as given in PubChem BioAssay AID1645882 (National Center for Advancing Translational Sciences (NCATS), 2021).
Among all 16,000 compounds or so, about 120 (0.75%) were called active. About 4% were inconclusive and are not listed. Calls follow the shape of the dose curve; as a rule, active = well fitted inhibition curve with a large enough effect; inconclusive = small, poorly fitted or top-dose-only effect; inactive = no such curve, though single readings can be large or run the other way. Some of the results follow.

Biological target: Rap guanine nucleotide exchange factor 3 (Homo sapiens) (UniProt O95398)
Sequence of UniProt O95398 (O95398 whole entry, looked up): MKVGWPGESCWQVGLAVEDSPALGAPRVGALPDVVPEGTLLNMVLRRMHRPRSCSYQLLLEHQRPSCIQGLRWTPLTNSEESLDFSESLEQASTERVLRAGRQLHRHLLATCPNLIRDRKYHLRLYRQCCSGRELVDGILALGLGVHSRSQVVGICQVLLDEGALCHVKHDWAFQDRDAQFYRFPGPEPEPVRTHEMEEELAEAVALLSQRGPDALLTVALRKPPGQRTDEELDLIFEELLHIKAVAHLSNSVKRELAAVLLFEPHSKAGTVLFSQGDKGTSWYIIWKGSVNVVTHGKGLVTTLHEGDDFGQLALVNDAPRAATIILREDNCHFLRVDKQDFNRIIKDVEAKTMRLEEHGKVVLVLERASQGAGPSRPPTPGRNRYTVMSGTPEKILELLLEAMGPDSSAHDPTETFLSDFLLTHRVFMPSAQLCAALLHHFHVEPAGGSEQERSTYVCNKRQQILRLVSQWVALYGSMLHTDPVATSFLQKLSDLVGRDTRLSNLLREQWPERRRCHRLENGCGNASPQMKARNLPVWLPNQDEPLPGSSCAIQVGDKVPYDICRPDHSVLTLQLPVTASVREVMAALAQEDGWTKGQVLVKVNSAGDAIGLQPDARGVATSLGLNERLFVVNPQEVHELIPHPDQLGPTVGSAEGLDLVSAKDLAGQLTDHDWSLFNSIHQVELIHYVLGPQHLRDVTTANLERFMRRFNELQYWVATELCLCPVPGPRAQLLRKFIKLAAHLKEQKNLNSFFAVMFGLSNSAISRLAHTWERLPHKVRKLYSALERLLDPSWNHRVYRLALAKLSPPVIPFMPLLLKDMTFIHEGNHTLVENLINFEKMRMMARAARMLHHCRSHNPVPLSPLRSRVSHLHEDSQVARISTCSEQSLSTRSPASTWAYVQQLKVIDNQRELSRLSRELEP
Assay: Validation qHTS for antagonist of cAMP-regulated guanine nucleotide exchange factor 3 (EPAC1);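 also: plate controls were DMSO for no effect and ATA control for full effect; nearly all actives have a fitted effect of over 75% in size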
Conditions: EPAC1 Rap1B-BODIPY-GDP exchange, fluorescence; series mostly up to 150 µM; activity change, negative = inhibition: at the top concentration
How it was run: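 Nucleotide exchange followed as fluorescence loss when BODIPY-GDP leaves Rap1B (480 nm excitation, 540 nm emission), read at 5 min intervals over 30 min. Reaction: 100 nM EPAC1, 250 nM RAP1B-BODIPY-GDP, 50 uM GDP; ATA and DMSO define normalization.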

Activity change, negative = inhibition, inactive:
O=C(NCc1ccon1)c1ccc(-c2csc3ccccc23)nc1N1CCC(N2CCCC(CO)C2)CC1 (stereo not drawn) 22.8%, Cn1c(=O)c(-c2ccc(F)cc2)nc2cnc(N3CCOCC3)nc21 1.1%, COc1ccc(-n2c(=O)c(-c3cccs3)nc3cnc(N4CCN(C)CC4)nc32)cc1 11.9%, C=C1CC/C=C(\C)CC[C@@H]2[C@@H]1CC2(C)C 8.41%, O=C(c1cc(C(F)(F)F)cc(C(F)(F)F)c1)N1CCC2(CC1)CCN(c1ccncc1)CC2 16.8%, Cc1cccc(CNc2nc(-c3ccc4c(c3)OCO4)nc3ccccc23)c1 -0.721%, CC(C)OC(=O)C(C)(C)Oc1ccc(C(=O)c2ccc(Cl)cc2)cc1, COc1ccccc1-c1oc2ccccc2c(=O)c1O 1.62%, Cc1cc(C(=O)N(Cc2cc3cc4c(cc3nc2N2CCOCC2)CCC4)CC2CCCO2)c(=O)[nH]c1C (stereo not drawn) -10.9%, CCNC(=O)[C@H]1O[C@H](n2cnc3c(N)nc(NCCc4ccc(CCC(=O)O)cc4)nc32)[C@@H](O)[C@@H]1O 13.2%, CN(C(=O)c1cnn(-c2nccc(-c3ccccc3C(F)(F)F)n2)c1C1CC1)C1CCOC1 (stereo not drawn) 9.74%, Cc1nc2cnc(N3CCN(C)CC3)nc2n(Cc2cccs2)c1=O 0.735%, COC(=O)c1cc(CNC(=O)c2ccccn2)cc(NC(=O)c2ccccc2OC)c1 16.2%, C/C=C1\NC(=O)[C@H]2CSSCC/C=C/[C@H](CC(=O)N[C@H](C(C)C)C(=O)N2)OC(=O)C(C(C)C)NC1=O (stereo partly drawn) 1.87%, CC1=C(C(=O)OC(C)C)[C@@H](c2cccc3nonc23)C([N+](=O)[O-])=C(C)N1 -19.5%, C[C@@H](CCc1ccc(O)cc1)NCCc1ccc(O)c(O)c1 14%, CCCC(=O)O[C@]1(C(=O)COC(=O)CC)[C@@H](C)C[C@H]2[C@@H]3CCC4=CC(=O)C=C[C@]4(C)[C@@]3(F)[C@@H](O)C[C@@]21C 5.75%, COc1cccc(Nc2ncc3nc(CCc4ccccc4)c(=O)n(C[C@H]4CCCO4)c3n2)c1 13.3%, COc1ncc2nc(-c3ccc(F)cc3)c(=O)n(Cc3ccc(F)cc3)c2n1 16.1%, CCOC(=O)[C@@H](C)N(C(=O)OC(C)(C)C)S(=O)(=O)N(Cc1ccccc1)[C@@H](C(=O)OC)C(C)C -6.25%, CO[C@]1(NC(=O)C(C(=O)O)c2ccc(O)cc2)C(=O)N2C(C(=O)O)=C(CSc3nnnn3C)COC21 (stereo partly drawn) 10.8%, CC(=O)NCCNc1ccnc(-c2ccccc2C(F)(F)F)n1 4.28%, Cc1cc2c(s1)Nc1ccccc1N=C2N1CCN(C)CC1, CC1(C)O[C@H]2C[C@@H]3[C@H]4CCC5=CC(=O)C=C[C@]5(C)[C@@]4(F)[C@@H](O)C[C@]3(C)[C@]2(C(=O)CO)O1 15.9%, O=C(O)CC1CCCc2ccccc2C1O (stereo not drawn) 10.9% [at 75.8 µM], CC(=O)OCC(=O)C1CCC2C3CCC4=CC(=O)CC[C@@]4(C)C3CC[C@]12C (stereo partly drawn) 8.45%, Cc1cccc(CNc2ccnc(-c3ccc(C(=O)N(C)C)cc3)n2)c1 23.1%, FC(F)(F)c1ccccc1-c1nccc(-n2ccnc2)n1 15.6%, CCOC(=S)SSC(=S)OCC 18.5%, COCCn1c(=O)c(-c2ccc(Cl)cc2)nc2cnc(Nc3ccccc3)nc21 16.9%, Cc1ccc(CNc2nc(CN3CCN(C=O)CC3)nc3ccccc23)o1 17.8%, O=S(=O)(O)Oc1ccc(C(c2ccc(OS(=O)(=O)O)cc2)c2ccccn2)cc1 24.9%, CC[C@H]1OC(=O)[C@H](C)[C@@H](O[C@H]2C[C@@](C)(OC)[C@@H](O)[C@H](C)O2)C(C)[C@@H](O[C@@H]2O[C@H](C)C[C@H](N(C)C)[C@@H]2O)[C@](C)(OC)C[C@@H](C)C(=O)[C@H](C)[C@@H](O)[C@]1(C)O (stereo partly drawn) -5.07%, Cc1nc2ccccc2nc1CN1CCOc2ccc(C3(O)CCN(c4ccccc4F)CC3)cc2C1 7.83%, O=C(c1ccco1)N1CCC2(CC1)CN(c1ccccn1)C2 5.99%, CCn1c(-c2cccc(OC)c2)nc2cc(NC(C)=O)cc(C(=O)N3CCC[C@H]3C(=O)OC)c21 17.2%, COC(=O)c1c(C)cc(OC)cc1O 12%, O=C1c2ccccc2C(=O)C1c1ccc(Br)cc1 -2.34%, NC(=O)CC[C@H](N)C(=O)O, COC(=O)CCC(=O)CN 14.5%, C[C@@H]1CCC(=O)N(C[C@@H](C)CSc2ccccc2)CC1 -1.52%, Clc1ccccc1CNCC1CCC(CNCc2ccccc2Cl)CC1 (stereo not drawn) -11.7%, C=C1CCC(C2CC(=O)OC2=O)C(=O)CCC2C1CC2(C)C (stereo not drawn) 0.371%, CCC(=O)N[C@@H]1Cc2ccccc2[C@@H](c2ccccc2)C1 -3.17%, CC1(C)S[C@@H]2[C@H](NC(=O)C3(N)CCCCC3)C(=O)N2[C@H]1C(=O)O 14%, O=C(O)c1cc(=O)c2c(Cl)cc(Cl)cc2[nH]1, CCC(=O)OCC(=O)[C@@]1(OC(=O)CC)[C@H](C)C[C@H]2[C@@H]3CCC4=CC(=O)C=C[C@]4(C)[C@@]3(F)[C@@H](O)C[C@@]21C -13.2%, COC(=O)N1CCC2(CC1)CCN(c1ccccn1)CC2 12.1%, Cc1nc2cnc(N3CCN(C)CC3)nc2n(Cc2ccc(F)cc2)c1=O -1.33%, COc1cc(C2=N/C(=C\c3ccccc3)C(=O)O2)cc(OC)c1OC 27.5%, C[C@@H]1CCC[C@H](C)N1 11.8% [at 75.8 µM], Oc1cccc(O)c1 -4.68%, O=C(Nc1nccs1)[C@@H]1CC=C[C@@H]2CCN(C3CC3)C(=O)[C@@H]21 -17.4%, COc1cc2c(cc1O)-c1ccccc1CN(C)C2 1.4%, C[C@H]1CN(CCc2ccccc2)C(=O)[C@@H]1CC(=O)NCc1ccccc1 12.6%, COc1cccc(-c2cc(NCc3ccccc3OC)ncn2)c1 -19.1%, CCCCN(CCCC)CC(O)c1cc(Cl)cc2c1-c1ccc(Cl)cc1/C2=C/c1ccc(Cl)cc1 (stereo not drawn) 7.97%, COc1cc2[nH]c(C)c(CCN3CCN(c4ccccc4)CC3)c2cc1OC 25.8%, Cc1cc(O)cc(C)c1Cl, Cc1noc(C)c1-c1cc(Nc2ccccc2)ncn1 -0.685%, Cc1cccc(C)c1NC(=O)CN1CCCC1 7.75%, O=C(c1ccco1)N1CCC2(CC1)CCN(c1cccc(-c3ccccc3)c1)CC2 2.01%, CC(C)(C)c1ccc(S(=O)(=O)/C=C/C#N)cc1 8.47% [at 75.8 µM]
